Reference: PMC11431137, “[^68Ga]Ga-DOTAGA-Glu(FAPi)2 Shows Enhanced Tumor Uptake and Theranostic Potential in Preclinical PET Imaging” (Diagnostics, 2024)
Where “and” joins values, the source holds several entries; their conditions need not be identical. Identical values can stand only once. This continues a long series; more values of the same kind are listed elsewhere.

Tested on: endogenously FAP-expressing xenografted mouse model, U87MG
Assay: In vivo PET/CT imaging, organ distribution in U87MG xenografted mice
Text: Six-week-old female NMRI nude mice were purchased (Janvier, Le Genest-Saint-Isle, France) and housed in groups of 4–8 mice in individually ventilated cages under regular lighting conditions. They were fed a standard pathogen-free pellet diet and provided water ad libitum. All animal experiments were approved by The Animal Experiments Inspectorate in Denmark (2021-15-0201-01041). The animals were acclimatized for two weeks before study initiation.
To establish a tumor model, the mice were subcutaneously inoculated on the right flank with a human xenograft glioblastoma U87MG (HTB-14, ATCC, Manassas, VA, USA). These cells were cultivated in Dulbecco’s modified Eagle’s medium (DMEM) supplemented with fetal bovine serum (FBS) and penicillin–streptomycin (Pen/Strep). Tumor growth was monitored two times weekly using calipers.
After adequate tumor establishment, the animals were injected intravenously in the tail vein with 4.49 ± 0.04 MBq [^68Ga]Ga-DOTAGA-Glu(FAPi)2 in a 100 μL phosphate buffer (0.1 M, pH 7) with 1% ethanol (v/v). PET/CT imaging (Inveon, Siemens Healthineers, Knoxville, TN, USA) was performed immediately after injection, and PET data were acquired for 3000 s. The imaging protocol included a dynamic framing setup, with five consecutive frames of 600 s each, resulting in average time intervals of 0–10, 10–20, 20–30, 30–40, and 40–50 min post-injection. During imaging, body temperature was maintained using a heated platform.
PET images were reconstructed using the 3D-OSEM/SP-MAP algorithm, and attenuation correction was performed using the co-registered CT images. The activity concentration was decay-corrected to the time of injection and quantified using Inveon Research Workplace (IRW). Regions of interest were manually drawn on CT images to delineate organs and derive volume and activity. Subsequently, the percentage of injected dose per gram (% ID/g) was calculated for tumor, blood, liver, kidney, and muscle tissues for each frame.
All graphical representations of the data were generated using Prism version 10.1.0 (1994–2023, GraphPad Software, LLC, Boston, MA, USA). The results were expressed as the mean ± standard error of the mean (SEM).

[1] = 5 min post-injection, Mean±SEM, n = 4 mice
[2] = 5 min post-injection, individual mice M1-M4
[3] = 15 min post-injection, Mean±SEM, n = 4 mice
[4] = 15 min post-injection, individual mice M1-M4
[5] = 25 min post-injection, Mean±SEM, n = 4 mice
[6] = 25 min post-injection, individual mice M1-M4
[7] = 35 min post-injection, Mean±SEM, n = 4 mice
[8] = 35 min post-injection, individual mice M1-M4
[9] = 45 min post-injection, Mean±SEM, n = 4 mice
[10] = 45 min post-injection, Mean±SEM, n = 4 mice, listed as [^68Ga]Ga-DOTAGA-Glu-(FAPi)2
[11] = 45 min post-injection, individual mice M1-M4

Organ distribution, blood [1]: 5.51±0.37 %ID/g
Organ distribution, muscle [1]: 0.71±0.12 %ID/g
Organ distribution, blood [2]: 5.59 %ID/g and 6.02 %ID/g and 4.44 %ID/g
Organ distribution, tumor [2]: 2.48 %ID/g
Organ distribution, blood [3]: 4.67±0.22 %ID/g
Organ distribution, muscle [3]: 1.17±0.07 %ID/g
Organ distribution, blood [4]: 4.69 %ID/g and 4.95 %ID/g and 5.00 %ID/g
Organ distribution, tumor [4]: 3.94 %ID/g
Organ distribution, blood [5]: 4.08±0.21 %ID/g
Organ distribution, muscle [5]: 1.22±0.03 %ID/g
Organ distribution, blood [6]: 4.16 %ID/g and 3.86 %ID/g and 4.62 %ID/g
Organ distribution, tumor [6]: 4.20 %ID/g
Organ distribution, blood [7]: 3.67±0.21 %ID/g
Organ distribution, muscle [7]: 1.24±0.07 %ID/g
Organ distribution, blood [8]: 3.90 %ID/g and 3.21 %ID/g and 4.13 %ID/g
Organ distribution, tumor [8]: 4.34 %ID/g
Organ distribution, blood [9]: 3.5 ± 0.2 %ID/g
Organ distribution, muscle [9]: 1.2 ± 0.1 %ID/g
Organ distribution, tumor [9]: 4.7 ± 0.5 %ID/g
Organ distribution, kidney [10]: 2.2 ± 0.2 %ID/g
Organ distribution, liver [10]: 2.7 ± 0.1 %ID/g
SMILES: N#C[C@@H]1CC(F)(F)CN1C(=O)CNC(=O)c1ccnc2ccc(OCCCCNC(=O)CC[C@H](NC(=O)CCC(C(=O)O)N3CCN(CC(=O)[O-])CCN(CC(=O)[O-])CCN(CC(=O)[O-])CC3)C(=O)NCCCCOc3ccc4nccc(C(=O)NCC(=O)N5CC(F)(F)C[C@H]5C#N)c4c3)cc12.[68Ga+3] (stereo partly drawn) [[^68Ga]Ga-DOTAGA-Glu(FAPi)2]
Organ distribution, muscle [2]: 1.00 %ID/g and 0.74 %ID/g and 0.65 %ID/g and 0.43 %ID/g
Organ distribution, muscle [4]: 1.34 %ID/g and 1.20 %ID/g and 1.11 %ID/g and 1.02 %ID/g
Organ distribution, muscle [6]: 1.29 %ID/g and 1.25 %ID/g and 1.16 %ID/g (2×)
Organ distribution, muscle [8]: 1.28 %ID/g and 1.37 %ID/g and 1.24 %ID/g and 1.06 %ID/g
Organ distribution, blood [11]: 3.39 %ID/g and 3.70 %ID/g and 2.92 %ID/g and 3.99 %ID/g
Organ distribution, muscle [11]: 1.33 %ID/g and 1.29 %ID/g and 1.18 %ID/g and 1.01 %ID/g
